Biological target: T1, CD19 antigen (UniProt P15391 20-556, limits assumed)
T1 construct: whole, on cells; the cell lines are human
T1 sequence (looked up): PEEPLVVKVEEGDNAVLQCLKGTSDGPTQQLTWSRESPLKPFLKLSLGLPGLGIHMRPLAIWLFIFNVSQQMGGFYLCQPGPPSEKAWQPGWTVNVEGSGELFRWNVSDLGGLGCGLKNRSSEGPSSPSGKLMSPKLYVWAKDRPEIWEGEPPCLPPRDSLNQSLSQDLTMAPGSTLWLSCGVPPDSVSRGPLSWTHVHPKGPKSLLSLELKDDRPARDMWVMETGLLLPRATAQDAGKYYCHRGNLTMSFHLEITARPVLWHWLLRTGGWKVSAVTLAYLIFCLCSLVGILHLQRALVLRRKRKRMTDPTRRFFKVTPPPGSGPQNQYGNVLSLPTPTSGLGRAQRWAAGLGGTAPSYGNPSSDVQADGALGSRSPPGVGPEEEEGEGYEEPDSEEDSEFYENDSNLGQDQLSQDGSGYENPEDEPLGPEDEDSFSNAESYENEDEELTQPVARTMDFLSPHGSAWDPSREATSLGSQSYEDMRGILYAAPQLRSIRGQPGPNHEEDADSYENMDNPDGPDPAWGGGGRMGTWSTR
Assay: flow cytometry on BV173 cells, detected with FITC-labeled Protein L
Method: 1. T cell and BV173 cell experimental group: 5 μg of multi-function proteins TiTE-15, 16 were added to BV173 cells and 3×10\hat{ }5 T cells derived from mononuclear cell-rich white membrane layer of normal human peripheral blood by density gradient centrifugation, and stimulated by OKT3 (50 ng/mL) and IL2 (300 IU/mL) for 14 days, and incubated on ice for 30 min. The supernatant was removed by centrifugation and the cells were re-suspended in 200 μL of PBS. 2 μL of FITC-Labeled recombinant Protein L (ACRO Biosystem, RPL-PF141) was added and incubated on ice for 30 min. The supernatant was removed by centrifugation, washed twice in 500 μL PBS, and re-suspended in 200 μL of PBS.
T cell and BV173 cell negative control group: 3*10E5 T cells respectively (PBMC stimulated with 50 ng/mL OKT3, 300 IU/mL IL2) were mixed with BV173 cells (ATCC) first, and 2 μL APC Mouse anti-Human CD279 (BD, Cat. No. 558694) was added to the cells and incubated on ice for 30 min. The supernatant was removed by centrifugation, and the cells were re-suspended in 200 μL of PBS as a negative control.

binding result: binds
B1: multifunctional protein TiTE-16 (other)
chain 1: DIQMTQTTSSLSASLGDRVTISCRASQDISKYLNWYQQKPDGTVKLLIYHTSRLHSGVPSRFSGSGSGTDYSLTISNLEQEDIATYFCQQGNTLPYTFGGGTKLEITGSTSGSGKPGSGEGSTKGEVKLQESGPGLVAPSQSLSVTCTVSGVSLPDYGVSWIRQPPRKGLEWLGVIWGSETTYYNSALKSRLTIIKDNSKSQVFLKMNSLQTDDTAIYYCAKHYYYGGSYAMDYWGQGTSVTVSSGGGGSITCPPPMSVEHADIWVKSYSLYSRERYICNSGFKRKAGTSSLTECVLNKATNVAHWTTPSLKCIRDPALVHQSGGSGGGGSGGGSGGGGSLQDIQMTQSPSSLSASVGDRVTITCRASQDIRNYLNWYQQKPGKAPKLLIYYTSRLESGVPSRFSGSGSGTDYTLTISSLQPEDFATYYCQQGNTLPWTFGQGTKVEIKGGGGSGGGGSGGGGSEVQLVESGGGLVQPGGSLRLSCAASGYSFTGYTMNWVRQAPGKGLEWVALINPYKGVSTYNQKFKDRFTISVDKSKNTAYLQMNSLRAEDTAVYYCARSGYYGDSDWYFDVWGQGTLVTV
chain 2: [about 120 residues omitted here]
notes: Heterodimer of the main chain and IL15 alone
